The text below walks through data of PubChem BioAssay AID1508642 (National Center for Advancing Translational Sciences (NCATS), 2021).

Out of some 43,000 compounds screened, about 200 (0.47%) were called active. Another 12% or so got no clear call; they are omitted. Calls follow the shape of the dose curve; as a rule, active = well fitted cell-killing curve with a large enough effect; inconclusive = small, poorly fitted or top-dose-only effect, or effect the other way; inactive = flat fitted curve, though single readings scatter. The list shows a part of the results.
% is scaled to controls: 0 for no effect and ±100 for the full control effect.

This assay is described as follows: Cell viability qHTS assay in S16 Pmp22-F2sN cells. Also: nearly all actives have a fitted effect of over 65% in size. Conditions: S16 Pmp22-F2sN Schwann cells (luciferase reporters placed in the Pmp22 gene) viability, CellTiter-Glo, 24 h; series mostly up to 57.5 µM; activity change, negative = cytotoxicity: at the top concentration. Put shortly: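 Luminescence from CellTiter-Glo, read by CCD camera after a 15 min room-temperature incubation, served as the viability signal. Reporter Schwann cells (S16 Pmp22-F2sN) had been treated with pin-transferred compounds for 24 h at 37C.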
Regarding `COc1ccc(C2CC(=O)c3c([nH]c(C(=O)OCCOc4ccccc4)c3C)C2)cc1OC` (configuration not stated), the “activity change, negative = cytotoxicity” value was inactive: 2.44%.
Then `CCOc1ccc(NC(=O)c2cn3c4c(ccc(Cl)c4c2=O)OC(C)C3)cc1` (configuration not stated), with inactive: 2.84%.
Regarding `COc1cccc(CNC(=O)c2cccn2-c2nnc(N3CCCC3)s2)c1`, the “activity change, negative = cytotoxicity” value is inactive: 2.32%.
The figure for `CCN1CCN(C(=O)c2cnn(-c3cccc(C)c3)c2C2CCN(C(=O)OC(C)(C)C)CC2)CC1` is inactive: 3.12%; for `COc1cccc(-c2ccnc3[nH]n(-c4ccccc4)c(=O)c23)c1` it is inactive: 11%.
The figure for `Cc1ccc(-n2c(SCC(=O)N3CCC(C)CC3)nc3c([nH]c4ccccc43)c2=O)cc1` is inactive: 7.76%; for `Cc1ccc(NC(=O)c2ccc(F)c(S(=O)(=O)N3CCc4ccccc4C3)c2)cc1F` it is inactive: -9.87%.
The figure for `COc1ccc(Cl)cc1NC(=O)CSc1cn(CC(=O)N2CCCC2)c2ccccc12` is inactive: -17.8%; for `Cc1cc(NC(=O)CN2C(=O)CSc3ccc(S(=O)(=O)N(C)C)cc32)ccc1Br` it is inactive: -10.4%.
Turning to `CCOC(=O)c1c(NC(=O)c2nc(SC)ncc2Cl)sc(C)c1C`, the “activity change, negative = cytotoxicity” value is inactive: 4.45%.
The figure for `CSc1ccc(CCNC(=O)c2ccc3c(c2)nc2n3CCOC2)cc1` is inactive: 26.1%; for `Cc1c(Cl)cccc1NC(=O)NCCOCCn1c(=O)oc2ccccc21` it is inactive: -21.9%; for `CCOC(=O)N1CCc2c(sc(NCc3sccc3C)c2C(=O)Nc2ccccc2OCC)C1` it is inactive: -19.5%.
As for `CCOC(=O)c1ccc(NC(=O)CN2C(=O)CC(c3ccc(C)c(C)c3)=Nc3ccccc32)cc1`, the “activity change, negative = cytotoxicity” value is inactive: -13.7%.
The figure for `CCOc1ccc(CCNC(=O)c2ccc3c(c2)N(Cc2cccc(Cl)c2)C(=O)c2ccccc2S3(=O)=O)cc1OCC` is inactive: -1.84%; for `Cn1c(=O)n(CCCc2ccccc2)c(=O)c2c1nc1n2CCN1c1ccccc1` it is inactive: 15.8%; for `CCOC(=O)c1scc(-c2ccc(C)cc2)c1S(=O)(=O)Nc1ccc(F)c(F)c1` it is inactive: 27.1%.
Consider `COc1ccc2c(c1)c(=O)c(C(=O)c1ccc(Cl)cc1)cn2CC(=O)Nc1ccc2c(c1)OCO2`, for which the “activity change, negative = cytotoxicity” value is inactive: 18.9%.
Consider `CCN(Cc1ccccc1)C(=O)CCS(=O)(=O)c1ccc2c(c1)oc(=O)n2C`, for which the “activity change, negative = cytotoxicity” value is inactive: -12.4%.
The figure for `COCCNc1ccc(-c2nc(-c3cccc(C)c3)no2)cc1[N+](=O)[O-]` is inactive: 7.11%; for `CN1C(=O)c2ccccc2Sc2ccc(NC(=O)COc3ccc(Cl)cc3)cc21` it is inactive: -25.2%.
Turning to `CC1CCCN(C(=O)Cn2c(=O)n(CC3CCC(C(=O)NC(C)C)CC3)c(=O)c3sccc32)C1` (configuration not stated), the “activity change, negative = cytotoxicity” value was inactive: 0.866%.
The figure for `Cn1c(-n2cccc2)c(-c2c(-c3ccc(F)cc3)[nH]c3c2c(=O)[nH]c(=O)n3C)c(=O)[nH]c1=O` is inactive: -5.13%.
Then `COc1ccc(CCNC(=O)CSCc2nc(-c3ccc(OC)c(OC)c3)oc2C)cc1OC`, with inactive: -1.76%.
Consider `COc1cc(OC)c(NC(=O)c2ccc3c(Cl)c4c(nc3c2)CCCC4)cc1Cl`, for which the “activity change, negative = cytotoxicity” value was inactive: 12.1%.
Consider `COc1cccc(OC)c1Cn1nnc2c(=O)[nH]c(C3CCN(C(=O)c4ccccc4)CC3)nc21`, for which the “activity change, negative = cytotoxicity” value was inactive: -19.4%.
Then `COc1ccc(-n2ncc3c2ncn2nc(-c4ccc(Cl)cc4Cl)nc32)cc1`, with inactive: 1.2%; and `COc1ccc(NC(=O)C(CC(C)C)NS(=O)(=O)c2ccc3c(c2)oc(=O)n3C)cc1Cl` (configuration not stated), with inactive: -2.76%; and `COc1cccc(C2Nc3ccccc3-c3nnc(SCc4ccccc4)nc3O2)c1OC` (configuration not stated), with inactive: 5.1%.
Take `Cc1ccc(S(=O)(=O)c2nc(-c3ccccc3)oc2SCC(=O)NC2CCCCC2)cc1`: the “activity change, negative = cytotoxicity” value was inactive: -20.4%.
`COc1ccc(N(CC(=O)N2CCN(c3cccc(OC)c3)CC2)S(=O)(=O)c2c(C)noc2C)cc1`: the “activity change, negative = cytotoxicity” value was inactive: -24.3%.
Then `O=C(Cn1c(=O)ccc2cc(S(=O)(=O)N3CCCC3)ccc21)NCc1ccc(F)cc1`, with inactive: 2.16%; and `CCOc1ccc(NC(=O)Cn2c(=O)n(Cc3nc(-c4ccccc4)no3)c(=O)c3ccccc32)cc1`, with inactive: -1.64%.
Take `CCOC(=O)C1=C(CS(=O)(=O)c2ccc(C)c(C)c2)NC(=O)NC1c1ccccc1OCC` (configuration not stated): the “activity change, negative = cytotoxicity” value was inactive: -12.5%.
Then `CCc1cccc(NC(=O)c2coc(=O)c3ccccc23)c1`, with inactive: -4.94%; and `COC(=O)c1ccc(Cl)cc1NC(=O)N1CCC(CN2CCC(C)CC2)CC1`, with inactive: 1.34%.
Regarding `COc1cccc(NC(=O)c2oc3ccccc3c2NC(=O)Cc2cccc(C)c2)c1`, the “activity change, negative = cytotoxicity” value was inactive: 8.25%.
Regarding `Cc1cn2c(=O)cc(COC(=O)C(C)Oc3ccccc3)nc2s1` (configuration not stated), the “activity change, negative = cytotoxicity” value is inactive: 0.87%.
Then `O=C(COc1ccc(Br)cc1)Nc1cccc2cccnc12`, with inactive: 3.12%.
The figure for `COC(=O)CN1C(=O)C(C)(C)c2cc(S(=O)(=O)Nc3ccc(C(C)C)cc3)ccc21` is inactive: -0.0744%; for `Cc1ccccc1OCC(=O)N(Cc1ccc(C(C)C)cc1)C1CCS(=O)(=O)C1` (configuration not stated) it is inactive: 0.817%.
The figure for `CCc1ccc(-n2nc(CO)c(C(=O)NCCCCc3ccccc3)n2)cc1` is inactive: -1.46%; for `O=C(NCc1ccc(Cl)cc1)c1cc(-c2ccc(F)cc2)on1` it is inactive: 18.2%.
On to `COc1ccc(N2CC(NC(=O)c3ccc(S(=O)(=O)N4CCOCC4)cc3)CC2=O)cc1` (configuration not stated), for which the “activity change, negative = cytotoxicity” value was inactive: 12.4%.
Then `COc1ccccc1NC(=O)C1CCN(c2ncnc3c2nc2n3CCCCC2)CC1`, with inactive: -11.8%; and `COc1cc2c(cc1OC)C(COc1ccc(C(C)C)cc1)N(C(=O)COc1ccccc1)CC2` (configuration not stated), with inactive: -25.5%; and `CCS(=O)(=O)c1nc(S(=O)(=O)c2ccc(C)cc2)c(NCc2ccccc2Cl)s1`, with inactive: -4.86%.
The figure for `CCOc1ccc(C(=O)c2cn(CC(=O)Nc3ccc(C)c(C)c3)c3ccc(OCC)cc3c2=O)cc1` is inactive: 1.9%; for `CCOc1ccc(Nc2nc(Nc3ccc(OCC)cc3)nc(N3CCOCC3)n2)cc1` it is inactive: 4.4%.
Turning to `COc1ccc(OCC(=O)N2CCN(C(=O)c3ccc(OC)cc3)CC2)cc1`, the “activity change, negative = cytotoxicity” value was inactive: 1.95%.
Then `O=C(O)Cn1nc(N2CCN(c3ccccc3)CC2)ccc1=O`, with inactive: 5.34%; and `CCOc1ccc(CCNC(=O)c2sc3nc4n(c(=O)c3c2C)CCCC4)cc1`, with inactive: -3.29%.
Regarding `Cc1nn2c(=O)cc(COC(=O)COc3ccccc3C)nc2s1`, the “activity change, negative = cytotoxicity” value was inactive: -5.75%.
The figure for `O=C(O)C1=CC(c2ccc(Br)cc2)n2ncnc2N1` (configuration not stated) is inactive: 19.4%.
As to `CCOC(=O)Cn1cnc2c(cnn2-c2ccc(C)c(C)c2)c1=O`, the “activity change, negative = cytotoxicity” value is inactive: 2.95%.
The figure for `Cc1ccccc1C(=O)NCc1ccc2c(c1)CCN2C(=O)c1ccc(F)cc1` is inactive: 7.21%.
Then `CC1CCC(NC(=O)CCc2cn(Cc3ccc(F)cc3)c3ccccc23)CC1` (configuration not stated), with inactive: 0.631%; and `COc1ccccc1CNC(=O)c1cc(-c2ccccc2)n[nH]1`, with inactive: -14.1%; and `Cn1c2ccc(F)cc2c2nnc(SCCN3CCCCC3)nc21`, with inactive: 9.32%.
Then `CC(C)NC(=O)c1sc2ncccc2c1-n1cccc1`, with inactive: -1.79%.
On to `CCc1ccc(S(=O)(=O)c2cnc(SCC(=O)Nc3ccc(OC)cc3OC)[nH]c2=O)cc1`, for which the “activity change, negative = cytotoxicity” value was inactive: 1.89%.
In the case of `Cc1ccc2nc(NC(=O)CSc3ncc(C(=O)Nc4ccccc4)c(=O)n3C)sc2c1`, the “activity change, negative = cytotoxicity” value is inactive: 9.71%.
The figure for `CCCCC(=O)Nc1ccc(OCc2cc(=O)n3ccc(C)cc3n2)cc1` is inactive: 15.7%; for `CCCCN(CCCC)c1nc(-c2ccccc2)nc2ccccc12` it is inactive: -2.97%; for `COc1cc(C2CC(=O)Nc3cc4c(cc32)OCCO4)cc(OC)c1O` (configuration not stated) it is inactive: 1.29%.
Then `COc1ccc(NC(=O)C2CCCN2S(=O)(=O)c2ccc3c(c2)CCCC(=O)N3)cc1Cl` (configuration not stated), with inactive: 24.5%; and `Cc1oc(-c2cccc(Cl)c2)nc1CSCC(=O)O`, with inactive: -2.33%; and `CCC(=O)Nc1ccc(C)cc1-c1nc2ccccc2n(Cc2ccccc2)c1=O`, with inactive: 21.4%.
`CCN(C(=O)c1cc2c(Cl)nc3ccc(C)cc3c2s1)c1cc(OC)ccc1OC`: the “activity change, negative = cytotoxicity” value was inactive: -14.4%.
The figure for `CC1(c2ccccc2)CC(C)(C)N(C(=O)c2ccccc2Cl)c2ccccc21` (configuration not stated) is inactive: -4.59%.
The figure for `Cc1cccc(-c2nnc(SCCC(=O)O)o2)c1` is inactive: -6.26%.
The figure for `CCOC(=O)c1[nH]c(C)c(C(=O)NCc2ccc(F)cc2)c1C` is inactive: -4.89%; for `COc1cc(CNCCSc2nnnn2C)ccc1OCc1c(F)cccc1Cl` it is inactive: -10.8%; for `CC(C)c1ccc(OCC(=O)Nc2cc(-c3nc4ncccc4o3)ccc2Cl)cc1` it is inactive: 21%.
For the compound `O=[N+]([O-])c1ccc(C(c2sc3nc(-c4ccco4)nn3c2O)N2CCC3(CC2)OCCO3)cc1` (configuration not stated), the “activity change, negative = cytotoxicity” value is inactive: 6.11%.
The figure for `COc1ccccc1CNC(=O)C(C)n1c(=O)cc(C(F)(F)F)c2c(C)nn(C)c21` (configuration not stated) is inactive: -10.1%; for `CCOc1ccc(CCNC(=O)c2cnc3c(-c4ccccc4)c(C)nn3c2C)cc1OCC` it is inactive: -12.7%; for `Cc1cccc(NC(=O)CN2C(=O)CCc3ccccc32)c1C` it is inactive: 4.96%.
The figure for `COc1ccc(N2CCN(c3oc(/C=C/c4cccc(OC)c4)nc3C#N)CC2)cc1` is inactive: 0.224%.
The figure for `CCc1ccc(CNC(=O)C2CCN(c3nnc(-n4c(C)ccc4C)s3)CC2)cc1` is inactive: 13.2%; for `Cc1ccc(OCC(=O)Nc2ccc(-c3nc4ccc(C)cc4o3)cc2)cc1` it is inactive: 5.95%.
Turning to `CCOc1ccc(C(=O)Nc2ccc3nc(SCC(=O)N4CCOCC4)sc3c2)cc1`, the “activity change, negative = cytotoxicity” value was inactive: 2.51%.
`CCN1CCN(C(=O)c2ccc3c(c2)N(Cc2cc(C)ccc2C)C(=O)c2ccccc2S3(=O)=O)CC1`: the “activity change, negative = cytotoxicity” value is inactive: 5.57%.
The figure for `N#Cc1ccccc1NC(=O)C(=O)NCC(c1cccnc1)N1CCN(c2ccccc2)CC1` (configuration not stated) is inactive: -9.52%.
Then `Cc1cccc(C(=O)Nc2cccc(C(=O)OCc3cc(=O)n4nc(C5CC5)sc4n3)c2)c1`, with inactive: 6.18%; and `Cc1cc(NC(=O)CN(c2cccc(C)c2C)S(=O)(=O)c2ccccc2)ccc1Br`, with inactive: -1.73%; and `O=C(Nc1ccc(F)cc1F)C1CCCN1S(=O)(=O)c1cccc2nsnc12` (configuration not stated), with inactive: 4.72%.
Regarding `CCCOc1ccc(CNC(=O)C2CCN(c3nn4c(=O)cc(C)nc4s3)CC2)cc1`, the “activity change, negative = cytotoxicity” value is inactive: 6.86%.
Consider `CCOc1ccccc1Nc1ccc2cc(S(=O)(=O)N3CCCCC3)ccc2n1`, for which the “activity change, negative = cytotoxicity” value is inactive: -26.1%.
The figure for `CCOC(=O)c1c(C)oc2nc(C)nc(NCCc3ccc(S(N)(=O)=O)cc3)c12` is inactive: -19.9%.
The figure for `O=C(NCCc1ccccc1)c1cnc2sc(N3CCOCC3)nn2c1=O` is inactive: -2.65%; for `CCCSCCCNC(=O)CN1C(=O)COc2ccc(S(=O)(=O)N3CCCCCC3)cc21` it is inactive: 10.5%; for `CCc1cccc(C)c1NS(=O)(=O)c1ccc(-n2cccn2)cc1` it is inactive: 3%.
Turning to `CC(=O)N1CCCc2cc(S(=O)(=O)NCc3ccc(OC(C)C)cc3)ccc21`, the “activity change, negative = cytotoxicity” value is inactive: -28.8%.
Take `COc1ccc(-c2nn(-c3ccc(F)cc3F)c3c2cnc2ccc(F)cc23)cc1`: the “activity change, negative = cytotoxicity” value is inactive: 7.91%.
Consider `CC(NC(=O)c1cc2sccc2n1Cc1ccc(F)cc1)c1ccccc1` (configuration not stated), for which the “activity change, negative = cytotoxicity” value was inactive: 12.9%.
Then `COc1ccc(C(=O)Nc2ccc(-c3cc(C(F)(F)F)nn3-c3ccccc3)cc2)cc1OC`, with inactive: -12.9%.
